Biological target: T1, AAL (Aleuria Aurantia lectin) (Aleuria aurantia, UniProt P18891)
T1 construct: purchased Vector Laboratories (Newark, CA, USA)
T1 sequence (P18891 1-313): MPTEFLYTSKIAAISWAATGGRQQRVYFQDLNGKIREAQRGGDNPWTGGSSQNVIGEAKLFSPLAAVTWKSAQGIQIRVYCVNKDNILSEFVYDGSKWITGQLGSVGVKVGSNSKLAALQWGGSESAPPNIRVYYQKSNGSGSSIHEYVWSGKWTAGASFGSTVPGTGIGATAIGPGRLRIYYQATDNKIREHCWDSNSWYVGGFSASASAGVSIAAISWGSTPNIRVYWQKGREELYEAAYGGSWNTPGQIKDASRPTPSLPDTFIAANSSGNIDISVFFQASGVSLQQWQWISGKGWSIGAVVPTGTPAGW
Experiment: COIN-CaR-nMS
Parameters: key: NQ indicates glycan ligand detected but not quantified due to low relative abundance
Conditions: N-glycan natural libraries; pH 6.9
Description: For most glycosylated GBPs, glycan binding measurements by nMS are challenging because the heterogeneity (micro- and macroheterogeniety) of GBP species makes quantifying the free and ligand-bound glycoforms difficult. As a result, detection of glycan ligands of glycosylated GBPs is usually performed using CaR-nMS. In CaR-nMS, glycan ligands bound (noncovalently) to a GBP are released as ions in the gas phase by collisional activation of the GBP-glycan complexes and detected. The results of CaR-nMS screening performed on glycan libraries of known concentrations enable GBP-glycan affinity rankings to be constructed from the relative abundances of released ligands. Generating titration curves from the relative abundances of released ligands in CaR-nMS experiments is generally not possible due to tip-to-tip variability in released ligand signal. The COIN approach enables quantification with CaR-nMS (COIN-CaR-nMS). […] Because PL dissociates to free P and L in the COIN-CaR-nMS experiment, Ft is calculated from eq 14 [drawing 19] […]
While the glycan specificities of lectins commonly used in lectin arrays[37] and biotechnology applications have been extensively investigated,[38] there is a dearth of quantative affinity data. […] Where indicated, Kd were also measured for purified oligosaccharide ligands to provide additional context to the reported affinity ranking.

`CC(=O)N[C@H]1[C@H](O[C@H]2[C@H](O)[C@@H](NC(C)=O)C(O)O[C@@H]2CO[C@@H]2O[C@@H](C)[C@@H](O)[C@@H](O)[C@@H]2O)O[C@H](CO)[C@@H](O[C@@H]2O[C@H](CO[C@H]3O[C@H](CO)[C@@H](O)[C@H](O)[C@@H]3O[C@@H]3O[C@H](CO)[C@@H](O[C@@H]4O[C@H](CO)[C@H](O)[C@H](O)[C@H]4O)[C@H](O)[C@H]3NC(C)=O)[C@@H](O)[C@H](O[C@H]3O[C@H](CO)[C@@H](O)[C@H](O)[C@@H]3O[C@@H]3O[C@H](CO)[C@@H](O[C@@H]4O[C@H](CO)[C@H](O)[C@H](O)[C@H]4O)[C@H](O)[C@H]3NC(C)=O)[C@@H]2O)[C@@H]1O` (stereo partly shown) [HexNAc4Hex5Fuc1] was tested, and the Kd was “NQ”.
